The full ranking holds about 1,800 sequences; the median of “median log2 fold change of GCK-ALFA target abundance (FLAG IP / Myc IP barcode read proportion)” is about 0.14, and the lowest 2% start at about -0.84. Some of the results follow.
T1: TRAF2, Q12933
T1 chain: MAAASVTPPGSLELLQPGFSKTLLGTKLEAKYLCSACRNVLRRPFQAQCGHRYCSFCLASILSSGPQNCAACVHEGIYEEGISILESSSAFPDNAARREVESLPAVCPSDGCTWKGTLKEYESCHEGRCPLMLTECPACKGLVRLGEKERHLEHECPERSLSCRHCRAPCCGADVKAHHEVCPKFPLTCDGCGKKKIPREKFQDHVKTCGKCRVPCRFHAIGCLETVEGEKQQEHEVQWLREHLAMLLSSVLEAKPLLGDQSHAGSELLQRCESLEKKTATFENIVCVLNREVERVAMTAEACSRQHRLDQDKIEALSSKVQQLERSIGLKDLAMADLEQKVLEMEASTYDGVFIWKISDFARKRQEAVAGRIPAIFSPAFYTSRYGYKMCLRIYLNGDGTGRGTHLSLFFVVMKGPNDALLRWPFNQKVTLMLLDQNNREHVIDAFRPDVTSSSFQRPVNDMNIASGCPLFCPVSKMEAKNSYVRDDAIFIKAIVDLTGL

B1: traf2_out_17_178_1659 (protein)
chain: NKEEARAEISAATDELIDLTEATADRLLAILEADGTASPEELAALREARRLGSATTTRALMEAAVPRSPRSAEVAALLDDFTKRSGELAKKIAEAYKKYE
B2: traf2_out_18_3_1929 (protein)
chain: KEEKLQEISDKIDEIIDETTAKAREWLDRLKKEHPEFKARADALLADLEAGAGPFGILDAIAELWREAGDEEEAEEVEKFREEKKKELEKLVEEYLELRK
B3: traf2_out_14_166_1278 (protein)
chain: MTEEEIERIREIVDKLEPLTEEAVKRAEEILEKNKSKLSPEDLKKVEELLEIARRNIGSTAINALEEIAKIYKKAGLEEAAKEMLKLAEELREKLKELNK
B4: traf2_out_11_79_934 (protein)
chain: EELREELLRLLEEALRKVEELIAALRAGTISPEERAALLDEIERLLQRAAELALKLGLSDVLVEISEAKRHVRLAYSGDLEALEEARRELEEAIRLLKEE
B5: traf2_out_20_38_2015 (protein)
chain: SEEEEEEKKEEELIKKAQEAYDEAEAWIAALQAAGKSVDEIAAAAKAEVRELLTKHGLEEEAEELIADIDRVRDSPDALRLIARILARARTLVFQKELQK
B6: traf2_out_6_156_2453 (protein)
chain: AAEAILERTEKEIEEGIKALAAAPEERKIAEINRIAGAFYRGLQALRAAGASLEELRAAAERLLETAEKKAKEAGLDERTRNLLLASLRAVADVALAAAA
B7: traf2_out_6_3_2523 (protein)
chain: SEESLREDARRVLEGMGITTAEQLRRLVRAEVNAVRRLVSRPDTDEADLAGAESVLALAEAVVDVAAEELPDLTEEQVAELRALIEEARKLVEEKRAELA
B8: traf2_out_11_169_862 (protein)
chain: KEEEFNRKLIDFALEVEDEAKKKLKEFALKLAKEAGLDVAEVEAIFEKHKNSSLSAIASALIEYFRSKGKEEEAEKILKKHDELKEEINKKVSEKIKELK
B9: traf2_out_17_178_1694 (protein)
chain: SKEELRKKISELTDKLIDLSDYYGTKLIELVKKEGVLTPEELKLLEEALKSGSNRTILETAEEIIPKSNASEETKKLLEEFKKEYKKISKEIAEAYEKYE
B10: traf2_out_9_17_2611 (protein)
chain: SAEEEELKERLLEAIEEVLKELVEKGYITEEEAEEILKKVKELIEKGASPDEIIAEFLGMIASILLTKSNLSLPEANKIVGEAYRRLQERLEKIEKELAE
B11: traf2_out_11_131_660 (protein)
chain: MDAVATARSAAERVDALLALAETLSPEERHRLALHALDTIEAVAEYLTSHVSTMTKEEVKEAARILREARDRVLALDPRVAPEAAEVEEAIKKLLEAAEE
B12: traf2_out_12_187_973 (protein)
chain: SVEEELIEAAREALRQALAALREAAPEDPRFQEFLERLERLAELLERDPSLAADAAVAASLILRAVRLKEAGLPQAEVDAAAAEAAAELAAVEAAARARE
B13: traf2_out_18_3_1948 (protein)
chain: KEEKRKELSEKLDEVFDDLADWLLARAEELVAEDPRFAPVLERLRALRAQGHLGSSLANTLIDGLLALGEEERAAEVEERYSEFAKKASAIIDEYEKLTS
B14: traf2_out_11_169_869 (protein)
chain: EEKEKNRKLNDFALELNDEAKEKLRDFALALAKEKGLDVEEVKAIFEKNKNKSLSAVASELIRYFKEKGKEEEAEKILKKHEELKEEINKKTSEKIKELE
B15: traf2_out_9_17_2614 (protein)
chain: SAAEEKLKKETLKAIEEVLKKLVEKGYITEEEAEEILKKVKELIEKGASVDEIIASFLGDVASILLTKSNLSLSEANKIVGEAYRELRKKREEIEKKLAA
B16: traf2_out_12_187_949 (protein)
chain: SVEEELLEAAKEALRQALRALEAAGPDDPRLRELRRLLEEAAEALEKDPSIASDLLVAASLALRAVRLLEAGAPPEEVERALEEARRELEEVLEEAKRKA
B17: traf2_out_19_16_1981 (protein)
chain: AREELERLRRELEEIERRVRELEAYFLANEDTLTREELSDLLVEVSELRRRAREIRERLEELAGVDPEEVERLRRRAEEVIERAQRLANRIVDRYEALLK
B18: traf2_out_5_189_2316 (protein)
chain: SMREEEQKKLNEKAKEIGKEVTDLINKMKAEGKSWEEIAKKMLEKMKKLDVETASLYSGIFYSIMMGEAIANNDEELKKIAEEFRKEAKKLIEEKEKKEA
B19: traf2_out_6_3_2519 (protein)
chain: MEESLREDARTVLKNMGITTAEQLLRLVKAEVNAVKKLVSRKDVDRADLAGAESVLALTRAMVEVAAEELPDLTEEQKAEMLELIEEAEKLVEEKRKELE
B20: traf2_out_17_162_1490 (protein)
chain: EELEERLRELERRLEELERRLKELEEKLKNIDKLSKEELTDLLVEASEAKREARRLAEELRELRERTGREELEELIRRAEEIAERLQRIANIIYKELEKK
B21: traf2_out_20_3_2089 (protein)
chain: EELKKELEKELEEAEKLIKEAIKIADEETAKKLKELKKKLKEAKELPLDEMLVELSEIRRELLELAEKAKKEGKEELAKILEEAADKVNKAMNLAYKIIE
B22: traf2_out_6_156_2424 (protein)
chain: MLEKIIKEAEEKIKKEIKKLAEASEEKKIKYISDIAGAVYKALQKMREAGASVEEIKEAIERLKKVAEKEAKKAGLDKDTRDLLLASINAVGEVALREAK
B23: traf2_out_16_104_1402 (protein)
chain: SEERREEFERIIEELREIAEELQRIANEIYKLYEKASPEEKKKLSDLLVEASEARREALEAALEAEEALRRGGDLEEARRRLERARERAERVRKEAEELK
B24: traf2_out_11_155_717 (protein)
chain: EEKLKLNQELTNEIMEIADEADKELEKLIKEVEKKNPEVAKKLRELLEENKDKGITTKLLSAARLLEEAGLEEEAKKVLELLEETQKKMNELYKEYEKKL
B25: traf2_out_6_156_2429 (protein)
chain: KLEEILKETLEKIKKLIKELAKASEEKKISYISKIAGTVYKAFQQMRELGASVEELKEFGEKVLKEAKEWAKEAGLDESTINLLLASINAVTEVAIEEAK
B26: traf2_out_5_63_2365 (protein)
chain: SEEEEERRELREEARLIDAANNAVIAGDDAAAAALLAEAEARGISHRTMALHARGMARALRLQGADPAQIARMEAFAAELRAREAAAAAAEAAAAAAAAA
B27: traf2_out_16_104_1381 (protein)
chain: SEEKEKKFEEIIKEYNEIAEEANRLANEIYKLMETADEEKKKELSDLLVKVSELKREALEAAIEAEEALKKGGDLEKQEKKLKELKKKLEELKKEVKELK
B28: traf2_out_9_108_2592 (protein)
chain: MSEEEKLEETFKKVKELAEEFIKTVDLTPEQKEQLKKAIENAEKLYEEGLKRTAIILLAIDMARVASEVGEEAVEELLKRLKEIDERAYNAAKRMVELLK
B29: traf2_out_14_149_1259 (protein)
chain: SATEERKRALEEARELFREIAELLERAIEAGSTEVDLERLRELVRRAREILKKQGFVLGHLLAIEELLASREEFTLEDLRRLLELARRAAESAEVLAEML

Target: T1, TRAF2, Q12933
Assay: median log2 fold change of GCK-ALFA target abundance (FLAG IP / Myc IP barcode read proportion) (log2 ratio); each designed protein is fused to an ALFA-tag nanobody in HEK293 cells to bring the named protein to FLAG-tagged glucokinase (GCK); Myc marks an untargeted standard; higher = target protein stabilised (more abundant)
Conditions: target protein: 3xFLAG-MCP-GCK-ALFA reporter; HEK293 landing pad (RPLP)
Outline: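 An ALFA-nanobody-fused binder library was recombined into HEK293 landing-pad cells and induced with 2 μg mL^−1 doxycycline. Cells were transfected with a plasmid expressing a FLAG-tagged target and a Myc-tagged standard. After 48 h, lysates underwent anti-FLAG and anti-Myc immunoprecipitation, and circular RNA barcodes were reverse transcribed, amplified and sequenced. Target abundance is the per-binder median log2 ratio of FLAG to Myc barcode read proportions. Barcodes needed ≥10^−7 proportion in both replicates, binders ≥3 barcodes per replicate, and a 10^−6 pseudocount was added; the two replicates were pooled.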

Binder | median log2 fold change
B1 | 0.0548
B2 | -0.0574
B3 | 0.256
B4 | -0.0131
B5 | -0.0971
B6 | -0.00113
B7 | -0.222
B8 | 0.0801
B9 | 0.357
B10 | 0.0354
B11 | 0.0927
B12 | 0.307
B13 | -0.299
B14 | 0.367
B15 | 0.202
B16 | 0.202
B17 | 0.142
B18 | 0.226
B19 | -0.45
B20 | -1.17
B21 | 0.29
B22 | -0.0673
B23 | 0.241
B24 | 0.0275
B25 | 0.000118
B26 | -0.838
B27 | -0.145
B28 | 0.129
B29 | 0.013

Reference: the supplement of paper PMC12632987
